{"source": "the supplement of paper PMC9446081", "note": "About 220 (0.56%) of roughly 39,000 compounds showed activity. This is one part of the list.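 Note: static incubation at 37 °C against the wild-type strain, values averaged over two biological replicates.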", "data": [{"tested_on": "Escherichia coli K-12 BW25113", "assay": "relative growth (OD600 normalised to plate interquartile mean) (fraction); higher = less growth inhibition, active = 0.2 or less", "conditions": "50 µM; LB; incubation time: overnight (16-24 h)", "values": [{"smiles": "C[C@@H]1CCCCO[C@H](CN(C)C(=O)c2ccccc2)[C@H](C)CN([C@@H](C)CO)C(=O)c2cc(NS(=O)(=O)c3ccc(F)cc3)ccc2O1", "relative growth": "inactive: 1.01"}, {"smiles": "CSc1ccccc1CN", "relative growth": "inactive: 0.987"}, {"smiles": "C[C@@H]1CCCCO[C@H](CN(C)S(=O)(=O)c2ccc(Cl)cc2)[C@H](C)CN([C@H](C)CO)C(=O)c2cc(NS(=O)(=O)c3ccccc3)ccc2O1", "relative growth": "inactive: 1.02"}, {"smiles": "Cc1noc(C)c1NC(=O)Nc1ccc2c(c1)C(=O)N([C@H](C)CO)C[C@@H](C)[C@@H](CN(C)Cc1ccc(C(F)(F)F)cc1)OCCCC[C@H](C)O2", "relative growth": "inactive: 1.02"}, {"smiles": "C[C@H](CO)N1C[C@H](C)[C@@H](CN(C)C(=O)Nc2ccccc2)OCc2ccccc2-c2c(n(C)c3ccccc23)C1=O", "relative growth": "inactive: 0.994"}, {"smiles": "CNC[C@@H]1OCCCC[C@@H](C)Oc2ccc(NC(=O)Nc3cccc4ccccc34)cc2C(=O)N([C@H](C)CO)C[C@@H]1C", "relative growth": "inactive: 1.01"}, {"smiles": "C[C@@H]1CN([C@H](C)CO)C(=O)c2cc(NC(=O)Nc3ccc(C(F)(F)F)cc3)ccc2O[C@@H]1CN(C)C(=O)Nc1ccccc1", "relative growth": "inactive: 1.01"}, {"smiles": "Cc1noc(C)c1S(=O)(=O)N(C)C[C@@H]1Oc2c(NC(=O)c3cnccn3)cccc2C(=O)N([C@@H](C)CO)C[C@@H]1C", "relative growth": "inactive: 0.999"}, {"smiles": "COc1cccc(S(=O)(=O)N(C)C[C@H]2OCc3cn(nn3)CCCC(=O)N([C@H](C)CO)C[C@H]2C)c1", "relative growth": "inactive: 0.991"}, {"smiles": "Cc1noc(C)c1NC(=O)N(C)C[C@H]1Oc2c(NC(=O)c3cnccn3)cccc2C(=O)N([C@H](C)CO)C[C@@H]1C", "relative growth": "inactive: 0.989"}, {"smiles": "Cc1ccc(S(=O)(=O)Nc2ccc3c(c2)C(=O)N([C@@H](C)CO)C[C@H](C)[C@H](CN(C)S(=O)(=O)c2ccc(C)cc2)OCCCC[C@@H](C)O3)cc1", "relative growth": "inactive: 1.01"}, {"smiles": "NCCCN.O=C(O)C(O)C(O)C(=O)O", "note": "(configuration not stated)", "relative growth": "inactive: 1.01"}, {"smiles": "C[C@H](CO)N1C[C@H](C)[C@H](CN(C)S(C)(=O)=O)Oc2ccc(NS(=O)(=O)c3cn(C)cn3)cc2C1=O", "relative growth": "inactive: 0.983"}, {"smiles": "CN1CCN(C(=O)C[C@H]2C=C[C@H](NS(=O)(=O)c3cccc(F)c3)[C@@H](CO)O2)CC1", "relative growth": "inactive: 0.988"}, {"smiles": "Cc1noc(C)c1S(=O)(=O)Nc1ccc2c(c1)C(=O)N([C@@H](C)CO)C[C@@H](C)[C@@H](CN(C)C(=O)Nc1ccc(C(F)(F)F)cc1)OCCCC[C@@H](C)O2", "relative growth": "inactive: 0.91"}, {"smiles": "C[C@@H]1CCCCO[C@H](CN(C)S(=O)(=O)c2cn(C)cn2)[C@H](C)CN([C@H](C)CO)C(=O)c2cc(NC(=O)CCCN(C)C)ccc2O1", "relative growth": "inactive: 0.959"}, {"smiles": "COc1ccc(CN(C)C[C@H]2Oc3ccc(NC(=O)Cn4cnnn4)cc3CC(=O)N([C@@H](C)CO)C[C@H]2C)cc1", "relative growth": "inactive: 1.01"}, {"smiles": "C[C@@H]1CCCCO[C@@H](CN(C)Cc2ccc(Cl)c(Cl)c2)[C@H](C)CN([C@@H](C)CO)C(=O)c2cc(NC(=O)CCC(F)(F)F)ccc2O1", "relative growth": "inactive: 1"}, {"smiles": "C[C@H](CO)N1C[C@H](C)[C@@H](CN(C)S(=O)(=O)c2cccs2)Oc2ccc(NC(=O)C3CC3)cc2CC1=O", "relative growth": "inactive: 1.01"}, {"smiles": "C[C@H](CO)N1C[C@H](C)[C@@H](CN(C)Cc2ccc(C(=O)O)cc2)Oc2ccc(NC(=O)Cn3cnnn3)cc2CC1=O", "relative growth": "inactive: 0.997"}, {"smiles": "C[C@@H](O)c1ccc2ccccc2c1", "relative growth": "inactive: 1.03"}, {"smiles": "COCC#Cc1ccc2c(c1)O[C@@H](CN(C)C(=O)Nc1ccccc1F)[C@@H](C)CN([C@@H](C)CO)S2(=O)=O", "relative growth": "inactive: 1.01"}, {"smiles": "COc1ccc(NC(=O)N(C)C[C@H]2Oc3ncc(C#C[C@H](C)O)cc3C(=O)N([C@H](C)CO)C[C@@H]2C)cc1", "relative growth": "inactive: 1.01"}, {"smiles": "C[C@H](CO)N1C[C@H](C)[C@@H](CN(C)S(=O)(=O)c2cn(C)cn2)Oc2c(NC(=O)Cc3ccccc3)cccc2C1=O", "relative growth": "inactive: 1.05"}, {"smiles": "C[C@@H]1CCCCO[C@@H](CN(C)C(=O)C2CCCCC2)[C@@H](C)CN([C@H](C)CO)C(=O)c2cc(NC(=O)Nc3cccc4ccccc34)ccc2O1", "relative growth": "inactive: 1.01"}, {"smiles": "COc1cc(OC)c2c(c1)OC(c1ccccc1)CC2=O", "note": "(configuration not stated)", "relative growth": "inactive: 0.812"}, {"smiles": "C[C@@H]1CN([C@@H](C)CO)C(=O)c2cccc(NS(=O)(=O)c3ccc(F)cc3)c2O[C@@H]1CN(C)Cc1ccncc1", "relative growth": "inactive: 0.995"}, {"smiles": "C[C@@H]1CCCCO[C@@H](CN(C)S(=O)(=O)c2cccs2)[C@H](C)CN([C@H](C)CO)C(=O)c2cc(NC(=O)Nc3ccc(F)cc3)ccc2O1", "relative growth": "inactive: 1.01"}, {"smiles": "C[C@H](CO)N1C[C@H](C)[C@H](CN(C)C(=O)Nc2ccc(F)cc2)OCCCC[C@H](C)Oc2ccc(NC(=O)NC3CCCCC3)cc2C1=O", "relative growth": "inactive: 0.996"}, {"smiles": "CC(C)CC#Cc1ccc2c(c1)O[C@@H](CN(C)S(=O)(=O)c1cccc(F)c1)[C@H](C)CN([C@@H](C)CO)S2(=O)=O", "relative growth": "inactive: 1.01"}, {"smiles": "CS(=O)(=O)NCc1nnnn1-c1ccc(F)c(F)c1", "relative growth": "inactive: 0.983"}, {"smiles": "C[C@H](CO)N1C[C@H](C)[C@@H](CN(C)C(=O)CN2CCOCC2)Oc2cc(/C=C/c3ccccc3)ccc2S1(=O)=O", "relative growth": "inactive: 1.02"}, {"smiles": "O=C(C[C@H]1C=C[C@@H](NC(=O)c2cnccn2)[C@@H](CO)O1)NCc1ccccc1F", "relative growth": "inactive: 0.988"}, {"smiles": "C[C@H](O)C#Cc1ccc2c(c1)O[C@@H](CN(C)C(=O)CN(C)C)[C@@H](C)CN([C@@H](C)CO)S2(=O)=O", "relative growth": "inactive: 1.03"}, {"smiles": "C[C@@H]1CN([C@H](C)CO)C(=O)c2cc(NC(=O)Nc3ccc4c(c3)OCO4)ccc2O[C@@H](C)CCCCO[C@H]1CN(C)Cc1ccc(C(F)(F)F)cc1", "relative growth": "inactive: 1.01"}, {"smiles": "Cc1noc(C)c1NC(=O)Nc1cccc2c1O[C@H](CN(C)C(=O)Nc1cccc3ccccc13)[C@H](C)CN([C@H](C)CO)C2=O", "relative growth": "inactive: 1.03"}, {"smiles": "C[C@@H]1CCCCO[C@H](CN(C)S(=O)(=O)c2cn(C)cn2)[C@H](C)CN([C@@H](C)CO)C(=O)c2cc(NC(=O)CCCN(C)C)ccc2O1", "relative growth": "inactive: 0.977"}, {"smiles": "Nc1ccccc1C(=O)N1CCOCC1", "relative growth": "inactive: 0.991"}, {"smiles": "O=c1cc(CN2CC[C@H](N3CCOCC3)[C@H](CCCO)C2)nc2c(O)cccn12", "relative growth": "inactive: 1.02"}, {"smiles": "COc1ccc(S(=O)(=O)Nc2ccc3c(c2)C(=O)N([C@@H](C)CO)C[C@@H](C)[C@H](CN(C)S(=O)(=O)c2ccc(Cl)cc2)OCCCC[C@H](C)O3)cc1", "relative growth": "inactive: 1.01"}, {"smiles": "CCN1CCCC(OC(=O)C(c2ccccc2)c2ccccc2)C1.Cl", "note": "(configuration not stated)", "relative growth": "inactive: 0.981"}, {"smiles": "Nc1ccc2c(c1)OCO2", "relative growth": "inactive: 1.03"}, {"smiles": "N=C(N)NCCCC[C@@H]1NC(=O)CCSSC[C@@H](C(N)=O)NC(=O)[C@@H]2CCCN2C(=O)[C@H](Cc2c[nH]c3ccccc23)NC(=O)[C@H](CC(=O)O)NC(=O)CNC1=O", "relative growth": "inactive: 0.991"}, {"smiles": "Cn1nnc2c1[C@H](COCC1CC1)CN(C(=O)CS(C)(=O)=O)C2", "relative growth": "inactive: 1"}, {"smiles": "COc1ccc(S(=O)(=O)Nc2cccc3c2O[C@H](CN(C)S(=O)(=O)c2ccc(OC)cc2)[C@H](C)CN([C@H](C)CO)C3=O)cc1", "relative growth": "inactive: 1.03"}, {"smiles": "O=C(CN1CCOCC1)NCC[C@H]1CC[C@@H](NC(=O)Cc2ccccn2)[C@H](CO)O1", "relative growth": "inactive: 1"}, {"smiles": "C[C@@H]1CN([C@@H](C)CO)C(=O)Cc2cc(NS(=O)(=O)c3cn(C)cn3)ccc2O[C@@H]1CN(C)C(=O)Nc1ccccc1", "relative growth": "inactive: 0.969"}, {"smiles": "C[C@H]1CN([C@@H](C)CO)C(=O)Cc2cc(NS(=O)(=O)c3ccccc3)ccc2O[C@@H]1CN(C)Cc1ccc(Cl)c(Cl)c1", "relative growth": "inactive: 0.971"}, {"smiles": "O=C(NCCCO)C(=O)NC[C@H]1COc2ccccc2O1", "relative growth": "inactive: 1.02"}, {"smiles": "O=C(O)CNC(=O)c1cc(=O)[nH]c(=O)[nH]1", "relative growth": "inactive: 0.986"}, {"smiles": "CCS(=O)(=O)CCn1c([N+](=O)[O-])cnc1C", "relative growth": "inactive: 1.13"}, {"smiles": "C[C@H]1CN([C@@H](C)CO)C(=O)c2cc(NS(=O)(=O)c3ccc(Cl)cc3)ccc2O[C@@H]1CN(C)Cc1ccc(Oc2ccccc2)cc1", "relative growth": "inactive: 1.01"}, {"smiles": "COc1ccc(-c2cnc3c(c2)C(=O)N([C@@H](C)CO)C[C@H](C)[C@@H](CN(C)C(=O)Cc2cccnc2)O3)cc1", "relative growth": "inactive: 0.989"}, {"smiles": "C[C@@H]1CCCCO[C@H](CN(C)Cc2ccc(C(=O)O)cc2)[C@H](C)CN([C@@H](C)CO)C(=O)c2cc(NC(=O)Cc3ccccc3)ccc2O1", "relative growth": "inactive: 0.977"}, {"smiles": "COc1ccc(S(=O)(=O)Nc2ccc3c(c2)C(=O)N([C@@H](C)CO)C[C@H](C)[C@@H](CN(C)C(=O)Nc2ccc4c(c2)OCO4)OCCCC[C@H](C)O3)cc1", "relative growth": "inactive: 1.03"}, {"smiles": "O=C1CNC(=O)N1[C@H]1CCNC1", "relative growth": "inactive: 0.996"}, {"smiles": "O=C1CCc2cc(OCCCCc3nnnn3C3CCCCC3)ccc2N1", "relative growth": "inactive: 1.19"}, {"smiles": "C[C@@H]1CN([C@@H](C)CO)C(=O)Cc2cc(NC(=O)Cn3cnnn3)ccc2O[C@H]1CN(C)S(=O)(=O)c1ccc(F)cc1", "relative growth": "inactive: 1.03"}, {"smiles": "Cc1noc(C)c1NC(=O)N1C[C@H](O)COC[C@H]2O[C@H](CC(=O)N[C@H]3CCN(Cc4ccccc4)C3)CC[C@@H]21", "relative growth": "inactive: 1.03"}, {"smiles": "COc1ccc(NC(=O)N(C)C[C@H]2OCCCC[C@@H](C)Oc3ccc(NS(=O)(=O)c4ccc(C)cc4)cc3C(=O)N([C@@H](C)CO)C[C@H]2C)cc1", "relative growth": "inactive: 1.02"}, {"smiles": "CC(C)NC(=O)N(C)C[C@H]1OCCCC[C@@H](C)Oc2ccc(NC(=O)Nc3ccc(F)cc3)cc2C(=O)N([C@@H](C)CO)C[C@H]1C", "relative growth": "inactive: 0.982"}, {"smiles": "C[C@H](CO)N1C[C@H](C)[C@@H](CN(C)C(=O)NC2CCCCC2)Oc2ccc(NS(C)(=O)=O)cc2C1=O", "relative growth": "inactive: 1"}]}]}
